Data as given in PMC4336329 (PLoS ONE, 2015).
Among all 310,000 compounds or so, about 2,200 (0.71%) showed an effect of 50% or more. The effect is printed as a negative number. The list shows a part of the results. Where no end group is shown, it is not given here.

Target: human ether-à-go-go-related gene (hERG) potassium channel (human, UniProt Q12809)
Assay: primary screen, population patch clamp on CHO cells stably expressing hERG

Sequence of human ether-à-go-go-related gene (hERG) potassium channel (Q12809 whole entry, looked up): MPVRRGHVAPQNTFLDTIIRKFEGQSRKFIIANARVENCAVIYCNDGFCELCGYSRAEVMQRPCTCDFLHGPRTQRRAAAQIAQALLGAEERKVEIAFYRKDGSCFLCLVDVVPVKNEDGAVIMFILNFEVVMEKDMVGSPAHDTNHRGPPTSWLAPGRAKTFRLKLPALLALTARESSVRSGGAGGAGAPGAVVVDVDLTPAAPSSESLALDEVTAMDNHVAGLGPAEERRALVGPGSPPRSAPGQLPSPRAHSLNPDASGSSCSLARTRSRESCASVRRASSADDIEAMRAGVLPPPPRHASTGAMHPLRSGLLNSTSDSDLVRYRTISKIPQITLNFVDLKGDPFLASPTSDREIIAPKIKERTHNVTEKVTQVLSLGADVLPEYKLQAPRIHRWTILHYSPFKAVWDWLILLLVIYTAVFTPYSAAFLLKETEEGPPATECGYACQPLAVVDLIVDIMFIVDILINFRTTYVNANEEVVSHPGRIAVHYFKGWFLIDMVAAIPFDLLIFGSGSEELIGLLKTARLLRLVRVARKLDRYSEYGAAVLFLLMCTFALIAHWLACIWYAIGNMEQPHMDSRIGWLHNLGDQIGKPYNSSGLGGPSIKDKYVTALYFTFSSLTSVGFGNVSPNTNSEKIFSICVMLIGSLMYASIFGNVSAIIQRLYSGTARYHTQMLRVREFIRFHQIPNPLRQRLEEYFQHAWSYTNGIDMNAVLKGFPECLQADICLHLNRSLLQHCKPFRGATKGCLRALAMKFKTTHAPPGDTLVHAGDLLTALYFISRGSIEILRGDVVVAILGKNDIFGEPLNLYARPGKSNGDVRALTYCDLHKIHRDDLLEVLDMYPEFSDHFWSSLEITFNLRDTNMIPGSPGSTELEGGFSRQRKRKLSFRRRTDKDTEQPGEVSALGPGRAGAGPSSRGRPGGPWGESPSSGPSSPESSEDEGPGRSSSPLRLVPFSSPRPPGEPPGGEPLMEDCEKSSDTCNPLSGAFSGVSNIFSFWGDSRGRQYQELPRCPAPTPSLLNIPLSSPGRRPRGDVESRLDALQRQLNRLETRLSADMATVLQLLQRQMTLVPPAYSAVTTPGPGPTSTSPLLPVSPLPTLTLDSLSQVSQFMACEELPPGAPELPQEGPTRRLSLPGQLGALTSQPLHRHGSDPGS

Row | Compound | hERG current change (%, negative = inhibition) at 1uM
1 | O=C(NCCc1ccccc1)N1c2ccccc2Sc2ccccc21 | -0.2%
2 | CCN(CC(=O)Nc1c(F)cccc1F)C(=O)CCc1nc2ccccc2c(=O)[nH]1 | 12.6%
3 | CN(C)NC1CC(=O)N(c2ccccc2)C1=O (centres unmarked) | 16.3%
4 | CSc1cnn(-c2ccccc2)c(=O)c1SC | 21%
5 | COc1ccc(C)cc1S(=O)(=O)N(C)CC(=O)NC1CCCCC1 | 16.4%
6 | Cc1nn(C)c(C(=O)Nc2ccn(Cc3c(F)c(F)cc(F)c3F)n2)c1[N+](=O)[O-] | 4.4%
7 | CCc1ccccc1NC(=O)CN(C)C(=O)Cn1cc(C(F)(F)F)cc(Cl)c1=O | 3.18%
8 | Cn1nnnc1NC(=O)c1ccccc1Cl | 9.54%
9 | O=C(c1ccccc1NS(=O)(=O)c1cccc(C(F)(F)F)c1)N1CCc2ccccc21 | 20.4%
10 | COc1cc(C(=O)N2CCN(Cc3ccccn3)CC2)cc(OC)c1OC.O=C(O)C(=O)O | 9.8%
11 | CN(C(=O)CCNC(=O)Cn1cnc2ccccc2c1=O)c1ccccc1F | 6.94%
12 | CC(C)Sc1nnc(CNC(=O)C23CC4CC(CC(C4)C2)C3)n1Cc1ccccc1 | 14%
13 | NS(=O)(=O)c1ccc(CCNC(=O)c2ccc(C(=O)c3ccccc3)cc2)cc1 | 8.76%
14 | COc1ccc(/C=N/NS(=O)(=O)c2ccccc2)cc1OC | 15.8%
15 | Cc1csc2nc(CSc3nc4ccccc4o3)cn12 | 5.11%
16 | O=C(CN1c2cccc3cccc(c23)S1(=O)=O)Nc1ccccc1 | 8.59%
17 | CCCCOC(=O)/C(=C/c1cn(C)c2ccccc12)NC(=O)c1ccc(OC)cc1 | 13.3%
18 | O=C(O)c1ccccc1C(=O)NNc1ccc(Cl)cc1Cl | -4.28%
19 | CC1=C(C)CC(C(=O)Nc2nccs2)C(C(=O)O)C1 (centres unmarked) | 23.2%
20 | Cc1cc(N2C(=O)C(O)=C(C(=O)c3ccco3)C2c2cccc(O)c2)no1 (centres unmarked) | 9.7%
21 | CC1CC(=O)N(CC(=O)NCc2ccco2)c2ccccc2S1 (centres unmarked) | -2.83%
22 | Cc1cccc(-n2nnnc2SCC(=O)Nc2cccc(S(N)(=O)=O)c2)c1 | 4.87%

Row | Compound | hERG current change (%, negative = inhibition) at 1uM
23 | Cc1ccc(C)c(N2CCN(C(=O)CCCn3ncn4c(cc5occc54)c3=O)CC2)c1 | 3.5%
24 | COc1ccccc1CNC(=O)COC(=O)c1cc(S(=O)(=O)N2CCOCC2)ccc1Cl | 2.74%
25 | C=C1c2ccc(C)cc2NC(=O)N1c1ccccc1 | 1.96%
26 | C=CCn1c(COc2cccc(C)c2C)nnc1SCC(=O)N1CCN(c2ccccc2)CC1 | -5.3%
27 | RKDVY | 17.6%
28 | COc1cccc(CNC(=O)c2cccnc2Sc2ccc(Cl)cc2)c1 | 14.2%
29 | CC(=O)Nc1cccc(C(=O)OC2CCOC2=O)c1 (centres unmarked) | 9.41%
30 | CCc1ccc(NC(=O)NCCCN2CCCC2=O)cc1 | -5.54%
31 | COC(=O)c1ccc2c(=O)[nH]c(CSc3nc(C)cs3)nc2c1 | 5.72%
32 | COc1ccc(N(CC(=O)NCc2ccco2)S(C)(=O)=O)c(OC)c1 | 7.65%
33 | C[C@@H](C(=O)NCCCCCC(=O)O)n1nnc2ccccc2c1=O | 7.31%
34 | O=C1C=Cc2ccccc2/C1=C/c1[nH]c(=O)[nH]c1O | 10.3%
35 | CC(Oc1ccc(-c2ccccc2)c(F)c1)c1ccn(S(=O)(=O)c2ccc(F)cc2)n1 (centres unmarked) | 10.5%
36 | CC(/C=N\NC(=O)Cn1cncn1)=C/c1ccc(C(C)C)cc1 | 2.15%
37 | CCOc1cc(CNCCN(C)C)c(Cl)cc1OCC(=O)NCCc1ccccc1.Cl | -6.4%
38 | CC(C)C(NS(=O)(=O)c1cccc2nsnc12)C(=O)NCc1ccco1 (centres unmarked) | 10.8%
39 | O=C(NNC(=S)NCc1ccc(Cl)cc1)c1ccc(Br)o1 | 19.6%
40 | Cc1ccc(S(=O)(=O)/N=C(\CN2CCOCC2)N2CCOCC2)cc1 | 23.3%
41 | CN(CC(=O)NCC1CCCCC1)S(=O)(=O)c1ccc(F)cc1 | 11.1%
42 | O=C(Nc1cn(-c2ccccc2)nc1-c1ccccc1)c1ccccc1 | 7.18%
43 | CC(=O)N1CCC(O)(c2cccc(C(F)(F)F)c2)CC1 | 8.78%
44 | CCOC(=O)C(=O)c1csc(NC(=O)COc2ccc(N(C)S(=O)(=O)c3ccc(F)cc3)cc2)n1 | 17%

Row | Compound | hERG current change (%, negative = inhibition) at 1uM
45 | CN(Cc1c(F)cccc1Cl)C(=O)c1ccc(NS(=O)(=O)c2ccc3[nH]c(=O)[nH]c3c2)cc1 | -4.45%
46 | CCN1CCN(c2cc(C)nc(-c3ccccc3O)n2)CC1 | -14.7%
47 | CC1C(=O)NN=C1C(=O)N/N=C\c1ccc(O)cc1O (centres unmarked) | 4.03%
48 | O=C(C[n+]1cccc(CNC(=O)c2ccc(OC(F)F)cc2)c1)Nc1ccc(SC(F)F)cc1.[Cl-] | -3.5%
49 | C/C(=N\NC(=O)COc1ccc(C(C)(C)C)cc1)c1ccc2c(c1)OCCO2 | 15.3%
50 | O=C(CCc1nc2ccccc2c(=O)[nH]1)Nc1cccc(S(=O)(=O)N2CCOCC2)c1 | -4.92%
51 | CC(C)OC(=O)CN1C(=O)c2ccccc2C1=O | 12.6%
52 | COc1cccc(NC(=O)Nc2ccc3c(c2)N(C)C(=O)CS3)c1 | 12.6%
53 | N#CC1=C(SCC(=O)Nc2ccc(C(=O)O)cc2)NC(=O)CC1c1ccco1 (centres unmarked) | 4.7%
54 | CCOC(=O)Cc1csc(SCn2nnc3ccccc3c2=O)n1 | 9.45%
55 | Cc1ccc(-n2c(Cc3ccccc3)nnc2SCC(=O)NNC(=O)Cc2ccccc2)cc1 | 11.8%
56 | O=c1c2c3nc4ccccc4nc3n(/N=C/c3ccncc3)c2ncn1-c1ccccc1 | 7.9%
57 | COc1ccc(-n2nc(C(=O)N(C)C3CCCCC3)c3ccccc3c2=O)c(OC)c1 | 10.6%
58 | O=c1cccccc1NN=C1CCCCC1 | 6.1%
59 | CCOc1cc(/C=N/NC(=O)NN(C)c2ncc(C(F)(F)F)cc2Cl)ccc1O | -3.15%
60 | COC(=O)c1[nH]nc2c1C(=O)N(Cc1ccccc1)C2=O | 11.3%
61 | NS(=O)(=O)c1ccc(CCNCC(=O)NCc2ccccc2Cl)cc1.O=C(O)C(=O)O | 4.91%
62 | FC(F)(F)c1cc(-c2cccs2)n[nH]1 | 11.5%
63 | O=C1CN(C(=O)COC(=O)CNC(=O)c2ccc(Cl)cc2)c2ccccc2N1 | 3.33%
64 | Cc1ccc([C@@H]2[C@@H]3C(=O)N(c4ccccc4)C(=O)[C@@H]3[C@]3(C)C(=O)N(Cc4ccccc4)CC(=O)N23)o1 | 11.9%
65 | Cc1ccc(NS(=O)(=O)c2ccc(NC(=O)C(C)Sc3ccc(Cl)cc3)cc2)c(C)c1 (centres unmarked) | -2.9%
66 | CCCCN1C(=O)C(NC(C)=O)c2ccccc21 (centres unmarked) | 10.4%

Row | Compound | hERG current change (%, negative = inhibition) at 1uM
67 | CCCCN(C(=O)CSc1n[nH]c(-c2ccc(C)cc2)n1)c1c(N)n(CCCC)c(=O)[nH]c1=O | 7.86%
68 | COc1ccc(-c2c(C)nn3c(N4CCC5(CC4)OCCO5)cc(C)nc23)cc1OC | 5.14%
69 | Cc1ccc(CN(C)C(=O)CN2C(=O)NC3(CCCc4ccccc43)C2=O)c(C)c1 (centres unmarked) | 2.02%
70 | N#C/C(=C(/O)CN1CCCCC1)c1nc(-c2ccc(Cl)cc2)cs1 | 2.77%
71 | Cc1cc(Oc2ccc(OCC(N)=O)nn2)nc(Cl)n1 | 5.91%
72 | O=C(Nc1ccc(F)cc1)N1CCN(c2ncccn2)CC1 | 9.35%
73 | O=C(OCC(=O)c1ccc([N+](=O)[O-])cc1)/C(=C\c1ccc(Cl)cc1)NC(=O)c1ccccc1 | -6.52%
74 | COc1ccc(C(=O)NCCc2nnc3ccc(SCC(=O)Nc4ccccc4F)nn23)cc1 | 11.4%
75 | CC(C)S(=O)(=O)c1nsc2nc(=O)c(/C=C3\C=Nc4ccccc43)c(N)n12 | 10.3%
76 | CC(NC(=O)C(C)(C)C)C(c1cccs1)N1CCOCC1 (centres unmarked) | 3.09%
77 | COC(=O)c1ccc(/C=N/Nc2nc3ccccc3[nH]2)cc1 | 3.9%
78 | CC(=O)c1cc(C(=O)N2CCCC(CCC(=O)N(C)CCc3ccccn3)C2)cs1 (centres unmarked) | 9.12%
79 | CCC(C)[C@H](NC(=O)N1CCn2c1nc1ccccc12)C(=O)NCc1ccc(OC)cc1 (some centres unmarked) | 13.6%
80 | Cn1c(=O)c2c(nc(SCC(=O)NCc3ccc4c(c3)OCO4)n2Cc2ccc(F)cc2)n(C)c1=O | -15%
81 | Cc1sc2ncnc(Nc3ccc(O)cc3)c2c1C | 4.65%
82 | COc1ccc([N+](=O)[O-])cc1NC(=O)C1(c2ccc(OC)c(OC)c2)CCOCC1 | 5.21%
83 | Cc1ccc(N(CCCCN2C(=O)c3ccccc3C2=O)C(=O)c2cccs2)cc1 | -11%
84 | O=C(NCc1ccco1)c1cc(-c2ccco2)on1 | 13.8%
85 | COC(=O)c1ccc2c(=O)n(CCN3CCOCC3)c(SCC(=O)Nc3cccc(OC)c3)nc2c1 | 5.05%
86 | O=C(Cc1c[nH]c2ccccc12)NCc1ccco1 | 5.99%
